Measured values from the supplement of paper PMC3334620.
In all, about 33,000 sequences were measured (“E-score (-0.5 to 0.5)”: median about -0.012, highest 2% from about 0.27 on). Some of the results follow.

biological target: T1, Vhr1 (UniProt P40522); assay: PBM E-score (8-mer binding enrichment) (E-score (-0.5 to 0.5)); higher = stronger / more preferred TF binding; most listed sequences are background and not binding sites; conditions: protein concentration: 200 nM; construct: GST-full length
T1 sequence: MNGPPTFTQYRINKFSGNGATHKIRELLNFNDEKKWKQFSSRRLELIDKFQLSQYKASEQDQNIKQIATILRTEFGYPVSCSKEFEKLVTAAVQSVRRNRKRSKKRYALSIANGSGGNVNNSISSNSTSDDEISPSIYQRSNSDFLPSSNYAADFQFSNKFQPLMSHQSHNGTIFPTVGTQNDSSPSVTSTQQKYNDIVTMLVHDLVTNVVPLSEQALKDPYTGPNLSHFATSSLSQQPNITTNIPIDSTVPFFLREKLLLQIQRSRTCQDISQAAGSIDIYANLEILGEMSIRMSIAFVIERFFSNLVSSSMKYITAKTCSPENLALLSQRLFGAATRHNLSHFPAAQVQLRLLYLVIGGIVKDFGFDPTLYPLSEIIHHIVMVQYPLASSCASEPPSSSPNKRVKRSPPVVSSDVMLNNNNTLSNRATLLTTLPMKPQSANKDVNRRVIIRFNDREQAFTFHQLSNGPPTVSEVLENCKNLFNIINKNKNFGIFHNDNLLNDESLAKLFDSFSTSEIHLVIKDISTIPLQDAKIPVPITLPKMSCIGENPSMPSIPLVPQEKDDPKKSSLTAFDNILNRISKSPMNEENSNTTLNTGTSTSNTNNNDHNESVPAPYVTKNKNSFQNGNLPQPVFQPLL
Outline: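 Yeast transcription factors carrying a GST tag, as full-length proteins or DNA-binding domains, were produced by PURExpress in vitro transcription/translation. About 100-200 nM protein was applied to universal all-10-mer Agilent arrays, double-stranded by primer extension on fresh or once-stripped slides. Bound protein was detected with fluorescent anti-GST, and scans were normalised with masliner. The Universal PBM Analysis Suite gave each ungapped eight-base word, pooled with its reverse complement, an E-score, a modified Wilcoxon-Mann-Whitney statistic.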

Row | Sequence | PBM E-score
1 | CCAAACAC | 0.0748
2 | GCGTGGGA | -0.0839
3 | AACCGCTG | -0.0526
4 | AATACCAG | 0.149
5 | GCATTCTA | -0.0169
6 | CGAAAGGA | 0.0605
7 | AAAGCACG | -0.125
8 | CACCCCCA | -0.104
9 | AAGACCTG | -0.276
10 | AAAGCGAG | -0.134
11 | GGTGCAAA | -0.22
12 | ATACCAGA | 0.0394
13 | ACCAGACG | 0.0284
14 | GGGCCGGA | -0.015
15 | ACGTACGA | -0.277
16 | ATGGCGAG | 0.103
17 | CAGCCGTA | 0.0247
18 | AGTATGGA | 0.0773
19 | CACGATGA | 0.208
20 | AGCCCGTG | -0.0623
21 | AATCAGGC | 0.137
22 | GTTAAAGA | -0.168
23 | ACCCTCCT | -0.116
24 | GATTGAGC | 0.00249
25 | CAGTAGCA | 0.00453

Row | Sequence | PBM E-score
26 | GATTCAGA | 0.305
27 | CCCTACAG | -0.208
28 | ATCTTCAC | 0.0381
29 | ACGCTTCA | -0.139
30 | AAACCCGT | -0.264
31 | CCGGCTTA | -0.108
32 | ACGGTGTC | -0.0633
33 | GACCGCTC | -0.177
34 | CTCTCCAG | -0.232
35 | ACATATGT | 0.0694
36 | AGCTCCCC | -0.0495
37 | CGATCTGA | 0.117
38 | ACAGCGGC | 0.0774
39 | ATTGAGTC | 0.387
40 | GTCTACGA | -0.259
41 | AGTTGTCC | 0.024
42 | CGGAACGA | 0.0817
43 | GTCTAACA | -0.136
44 | AAATTGCA | 0.00925
45 | AAACCGCA | -0.0472
46 | GACCCTGA | -0.082
47 | CATCTATC | 0.0509
48 | TCGGGACA | 0.0337
49 | AGTAGGTG | 0.139
50 | CACGTTCA | -0.131

Row | Sequence | PBM E-score
51 | CCCGGTTC | 0.124
52 | AGGACAAA | 0.0135
53 | GCGCGATA | 0.0668
54 | TGCAGAAA | -0.0168
55 | CGATAAAC | -0.126
56 | GTCTCAGA | -0.0143
57 | AGGCTACC | -0.0109
58 | ATGTTTTG | 0.127
59 | CAGTACGG | 0.164
60 | GCGTCAGC | -0.256
61 | GCTTGCCC | -0.31
62 | CGCTATAC | -0.0131
63 | GTACCGTA | -0.037
64 | GATTGGGC | -0.102
65 | GGAAAACA | 0.0153
66 | CTCTATCA | -0.155
67 | CAAACGTA | 0.00774
68 | ACTGACCT | -0.00202
69 | ACCTCCGG | 0.205
70 | AGAATCCA | 0.143
71 | AAGATATT | 0.153
72 | GTATGTTA | 0.172
73 | CGACTCGC | 0.26
74 | GATTAGTA | 0.198
75 | GAGAATTA | -0.072

Row | Sequence | PBM E-score
76 | ATAACGAC | 0.198
77 | ACCAGACC | 0.21
78 | CCAACGAC | -0.083
79 | GATTAATA | 0.234
80 | GGGGAATA | -0.161
81 | TAAAACAA | -0.284
82 | GAGTGAGC | 0.072
83 | GGGAACAA | 0.0885
84 | CGAGGGAA | 0.0257
85 | CTATTGGC | -0.126
86 | AGTCCGCG | 0.107
87 | AAGGTCAG | -0.221
88 | CCCACGAC | 0.0264
89 | TCGGGGAA | 0.104
90 | CGGGTTAG | -0.167
91 | AATTGAGC | -0.0499
92 | CCAACTCC | 0.17
93 | ACGAAGAT | 0.02
94 | ACACTGTC | -0.0634
95 | AAGCACTC | -0.0746
96 | GCGGAGCA | 0.0687
97 | AATTTCAC | -0.231
98 | ACTCGTCT | 0.122
99 | ACATCTTA | -0.117
100 | CGCATAGC | -0.13

Row | Sequence | PBM E-score
101 | CGTTACAG | 0.0591
102 | GTTACACA | 0.241
103 | AGGGTTCA | 0.0521
104 | CTATTTTA | 0.0714
105 | ATCGTTAA | 0.00271
106 | CCAACAAG | -0.0377
107 | AGTGGTCC | 0.141
108 | CCTGGTAC | 0.0996
109 | GTAATGTA | -0.131
110 | AAGGCTAG | -0.127
111 | CGTTGGCC | -0.187
112 | ACCCTGTA | -0.0186
113 | ACTGTACT | -0.071
114 | ATAATAGG | 0.0975
115 | ATCATGTC | 0.256
116 | CTCTATTA | -0.0585
117 | CAGAGGGG | -0.22
118 | ATAAATTA | 0.116
119 | GTTGACGA | 0.00821
120 | CACCATAC | 0.0859
121 | ACCAGTCA | 0.298
122 | CAGTGCAA | 0.0571
123 | GTTTCTAA | -0.247
124 | CAAATTTG | -0.113
125 | TACACCCA | 0.222

Row | Sequence | PBM E-score
126 | GGCGTTTA | -0.0151
127 | GTTTACTA | 0.132
128 | AAGTTAAC | -0.0842
129 | CGTATGTC | 0.036
130 | ACTATCTC | 0.0558
131 | CCAATCCC | 0.13
132 | CAACTCTC | -0.113
133 | GGACATCC | -0.0758
134 | CCTTGCGC | 0.055
135 | CCTACACG | -0.0152
136 | ACAGCAGA | -0.0126
137 | CCAAAGGG | 0.0819
138 | ATGTTGAC | 0.178
139 | GAGTCTAC | 0.0425
140 | CAGGGGGA | -0.0431
141 | GCTTCCCA | -0.0411
142 | CTATCAAC | 0.00465
143 | TTAATGAA | -0.0681
144 | CTATGCTA | 0.0846
145 | ATATCGAT | 0.232
146 | AAAGCTTC | -0.344
147 | CCAGGTCG | 0.00213
148 | AAGGTAGG | -0.0143
149 | CGATCATA | 0.0846
150 | GAGGAAAA | -0.197

Row | Sequence | PBM E-score
151 | AACGGTCT | -0.153
152 | AAACACTG | 0.0888
153 | CAGGTCAA | -0.245
154 | GGACGCCC | -0.148
155 | TGGTGAAA | -0.108
156 | CAGGCAAG | -0.0917
157 | CTGCAGCA | 0.0732
158 | CGCCGCCC | 0.118
159 | CTTCAGTA | -0.0184
160 | TAAAACCA | -0.0353
161 | ACGCGCTA | -0.0771
162 | ATCTGCGC | 0.163
163 | GCATGCAA | 0.176
164 | CCACTCTC | -0.13
165 | CCGACCAA | 0.0363
166 | GGGCAGCA | 0.00846
167 | AGGCTCGA | -0.0488
168 | AGCCCATC | 0.22
169 | ACGACACT | 0.219
170 | ACAGTCGC | 0.0972
171 | ACGAGTGG | 0.0233
172 | AGTGATTG | 0.343
